The text below walks through data of PubChem BioAssay AID1508623 (National Center for Advancing Translational Sciences (NCATS), 2021).

Hit rate of the full screen: of about 48,000 compounds, about 450 (0.94%) were called active. About 19% were inconclusive and are not listed. Calls come from the whole dose curve; as a rule, active = well fitted inhibition curve with a large enough effect; inconclusive = small, poorly fitted or top-dose-only effect; inactive = no such curve, though single readings can be large or run the other way. This is one part of the list.

A short description of the experiment: Primary qHTS for Identification of Small Molecule Inhibitors of Huntingtin Promoter Activity. Note: nearly all actives have a fitted effect of over 50% in size. The note with it: HEK293 HTT promoter firefly luciferase reporter (activity 0% = vehicle and -100% = no light), 24 h; series mostly up to 57.5 µM; activity change, negative = inhibition: at the top concentration. The text has this:
Assay Provider: Russell L. Margolis M.D.
Department Neurology, Johns Hopkins University School of Medicine, Baltimore, MD
Huntington's Disease (HD) is a neurodegenerative disorder caused by a CAG repeat expansion in exon 1 of huntingtin (HTT). While there are currently no disease-modifying treatments for HD, recent efforts have focused on development of nucleotide-based therapeutics to lower HTT expression. As an alternative to siRNA or oligonucleotide methods, we hypothesized that suppression of HTT expression might be accomplished by small molecules that either (1) directly decrease HTT expression by suppressing HTT promoter activity or (2) indirectly decrease HTT expression by increasing the promoter activity of HTT-AS, the gene antisense to HTT that appears to inhibit expression of HTT.
We developed and employed a high throughput screen for modifiers of HTT and HTT-AS promoter activity using luminescent reporter HEK293 cells; of the 52,041 compounds tested, we identified 898 replicable hits. We used a rigorous stepwise approach to assess compound toxicity and the capacity of the compounds to specifically lower huntingtin protein in 5 different cell lines, including HEK293 cells, HD lymphoblastoid cells, mouse primary neurons, HD iPSCs differentiated into cortical-like neurons, and HD hESCs. We found no compounds which were able to lower huntingtin without lowering cell viability in all assays, though the potential efficacy of a few compounds at non-toxic doses could not be excluded.
SEQUENCE No. (1, 2, 3, etc.); […] (e.g., Cells, Incubation, Reagent, etc.); VALUE and DESCRIPTION.
1; Reagent; 4 uL; 2,500 Hek293 luciferase reporter cells per wells
3; Compound; 23 nL; Control inhibitor / compound library
5; Reagent; 2.5 uL; Firefly Luc reagent; Dual-Glo Luciferase Reporter Assay System (Promega)
6; Time; 10 min; room temperature incubation
7; Detection; Luminescence; FLuc
NOTES (numbers refer to sequence above)
1; High-throughput screening, measuring luminescence from a Hek293 luciferase reporter, was performed in 1,536 well white-walled tissue-culture treated plates. 2,500 cells were plated in 4 µL of Opti-MEM per well using a Multidrop Combi Reagent Dispenser (ThermoFisher).
2; Assay plates were cultured for 24 hours.
3; Control inhibitor (PTC124; final concentration of 50 uM) and compound library (at final concentrations of 460 nM - 57.5 uM) were added to the assay plate using the Kalypsis Pintool Robotic System equipped with 1536 pinheads.
4; Cells were then incubated for 24 hours at 37 degrees C prior to luminescence measurements.
5; In all cases, luminescence was measured using the Dual-Glo Luciferase Reporter Assay System (Promega) following the manufacturer's instructions.
6; Room temperature incubation.
7; Luminescence signal was obtained using the PerkinElmer ViewLux plate reader. Results were normalized to vehicle control (0% activity) and zero RLU (-100% activity).
Regarding `Cc1cccc(CCNC(=O)c2nc(-c3ccc(Cl)cc3)n3c2CCCCC3)c1`, the “activity change, negative = inhibition” value is inactive: -21.2%.

Regarding `CCn1c2c(c(=O)n3ncc(C(=O)Nc4ccc(F)c(Cl)c4)c13)CN(Cc1ccc(OC)cc1)CC2`, the “activity change, negative = inhibition” value was inactive: -12.7%.

Regarding `CN(C)[C@@H]1C(=O)C(C(=O)NCN2CCCC2)=C(O)[C@@]2(O)C(=O)C3=C(O)c4c(O)cccc4[C@@](C)(O)C3C[C@@H]12` (stereo partly drawn), the “activity change, negative = inhibition” value is inactive: 15.3%.

Take `CC(C)CC(=O)N(Cc1ccccc1)S(=O)(=O)c1ccc2c(c1)oc(=O)n2C`: the “activity change, negative = inhibition” value is inactive: -25.6%.

As for `CCOc1ccc(C(=O)OCc2cc(=O)n3nc(C(C)C)sc3n2)cc1`, the “activity change, negative = inhibition” value is inactive: -6.23%.

In the case of `CO/N=C(/C(=O)N[C@@H]1C(=O)N2C(C(=O)[O-])=C(C[n+]3ccn4ncccc43)CS[C@H]12)c1nsc(N)n1`, the “activity change, negative = inhibition” value is inactive: 1.14%.

Consider `Cc1ccc(S(=O)(=O)c2cn(CC(=O)Nc3ccccc3)c3cc4c(cc3c2=O)OCO4)cc1`, for which the “activity change, negative = inhibition” value was inactive: -18.4%.

Regarding `Fc1ccc(C(c2ccc(F)cc2)N2CCNCC2)cc1`, the “activity change, negative = inhibition” value is inactive: 3.5%.

As for `CCOc1ccccc1NC(=O)NC(CC)c1c(-n2cccc2)sc2c1CCN(C)C2` (stereo not drawn), the “activity change, negative = inhibition” value is inactive: -12.4%.

Consider `CCc1ccc(Nc2nc3ccccc3c3nnc(C)n23)cc1`, for which the “activity change, negative = inhibition” value was inactive: -11%.

`CCc1ccccc1NC(=O)CSc1nccn1C`: the “activity change, negative = inhibition” value was inactive: -27%.

On to `CCOC(=O)c1cc(OC(=O)c2cc(Cl)ccc2OC)n(-c2ccccc2)n1`, for which the “activity change, negative = inhibition” value is inactive: -5%.

As to `CCc1ccc(S(=O)(=O)c2nnn3c2nc(NCCC(C)C)c2cc(Cl)ccc23)cc1`, the “activity change, negative = inhibition” value was inactive: -9.32%.

For `CC(=O)c1ccc(OC(=O)c2c(-c3ccccc3Cl)noc2C)cc1`, the “activity change, negative = inhibition” value was inactive: 2.02%.

For the compound `COc1ccc2c(c1)c(CC(=O)Nc1cc(C)c(OC)c(C)c1)c(C)n2C(=O)c1ccc(Cl)cc1`, the “activity change, negative = inhibition” value was inactive: -23.4%.

In the case of `O=C(COc1ccc(Cl)cc1Cl)Nc1ccc(C(=O)OC2CCCCC2)cc1`, the “activity change, negative = inhibition” value is inactive: -7.94%.

Turning to `Cn1nc(C(=O)Nc2cccc(C(F)(F)F)c2)c2c1-c1ccccc1S(=O)(=O)C2`, the “activity change, negative = inhibition” value was inactive: 9.12%.

For `CCCN(CCC)S(=O)(=O)c1ccc(C(=O)N2CCn3c4c(c5cc(C)ccc53)CCCC42)cc1` (stereo not drawn), the “activity change, negative = inhibition” value was inactive: -40.7%.

Take `COc1ccccc1Nc1ncnc2c1nc1n2CCCCC1`: the “activity change, negative = inhibition” value was inactive: -0.505%.

As to `CCOc1ccc(NS(=O)(=O)c2ccc3[nH]cc(C(=O)NCCc4ccccc4)c(=O)c3c2)cc1`, the “activity change, negative = inhibition” value is inactive: 17%.

`Cn1c(SCC(=O)Nc2ccccc2F)nc2c([nH]c3ccccc32)c1=O`: the “activity change, negative = inhibition” value was inactive: -9.92%.

With `Cc1ccc(Nc2c(-c3cccc(Cl)c3)nc3cccc(C)n23)cc1`, the “activity change, negative = inhibition” value was inactive: -24.7%.

On to `CCC(=O)N1c2ccccc2CC1C(=O)NCCN1CCN(c2ccccc2F)CC1` (stereo not drawn), for which the “activity change, negative = inhibition” value is inactive: -17.9%.

For `Cc1ccc(NC(=O)CSc2nc(=O)n(CCN3CCOCC3)c3c2CCC3)cc1Cl`, the “activity change, negative = inhibition” value is inactive: -21.6%.

Regarding `Cn1c(=O)nc2n(-c3ccc(Br)cc3)c3cccc(Cl)c3cc-2c1=O`, the “activity change, negative = inhibition” value was inactive: -16.2%.

On to `CC(C)(C)OC(=O)N1CCC(c2c(C(=O)NCc3ccccn3)cnn2-c2ccccc2Cl)CC1`, for which the “activity change, negative = inhibition” value was inactive: -4.87%.

On to `Cc1ccc(C)c(N2CCN(S(=O)(=O)c3ccc(C4CCCCC4)cc3)CC2)c1`, for which the “activity change, negative = inhibition” value is inactive: -1.75%.

With `CCOc1ccccc1NC(=O)CSc1nc(-c2cccs2)cc(C(F)(F)F)n1`, the “activity change, negative = inhibition” value was inactive: -6.44%.

For the compound `COc1ccc(Cl)cc1NC(=O)c1c(NCc2cccs2)sc2c1CCC(C)C2` (stereo not drawn), the “activity change, negative = inhibition” value was inactive: -21.5%.

As for `COc1cccc(CNC(=O)C2CCN(c3ncnc4c3nc3n4CCCCC3)CC2)c1`, the “activity change, negative = inhibition” value is inactive: -9.5%.

As for `O=C(Nc1cc(-c2nc3ccccc3o2)ccc1Cl)c1cc([N+](=O)[O-])ccc1N1CCOCC1`, the “activity change, negative = inhibition” value is inactive: 12.1%.

Take `O=C1CCC[C@@H]2[C@H]3CCC[N+]4([O-])CCC[C@@H](CN12)[C@@H]34` (stereo partly drawn): the “activity change, negative = inhibition” value was inactive: 5.31%.

`Cn1cc(-c2cc3n(n2)CCC(=O)N3CC(=O)NCc2ccccc2)c2ccccc21`: the “activity change, negative = inhibition” value was inactive: -16.2%.

Consider `CN(C)C1(CNC(=O)COc2cccc(Cl)c2)CCCCC1`, for which the “activity change, negative = inhibition” value is inactive: -15.5%.

Turning to `Cc1cccc(Cn2c(SCc3ccc(C(=O)NCc4cccs4)cc3)nc3ccncc32)c1`, the “activity change, negative = inhibition” value was inactive: -32.4%.

Regarding `Cc1cccc(C(=O)NCc2cn3cccc(C)c3n2)c1`, the “activity change, negative = inhibition” value is inactive: -0.756%.

In the case of `O=c1cc(N2CCN(c3ccc(F)cc3)CC2)[nH]c(=O)n1-c1cccc(Br)c1`, the “activity change, negative = inhibition” value is inactive: -28.3%.

Consider `Cc1ccc(-n2c(=O)c3cccnc3n2CC(=O)Nc2ccccc2C(F)(F)F)cc1C`, for which the “activity change, negative = inhibition” value is inactive: -23.4%.

Turning to `COc1cccc(CNC(=O)C2CCCN(S(=O)(=O)c3cn(C)cn3)C2)c1` (stereo not drawn), the “activity change, negative = inhibition” value was inactive: -10.8%.

As for `Cc1ccc(C)c(NC(=O)C(NS(=O)(=O)c2ccc3c(c2)CCC(=O)N3)c2ccccc2)c1` (stereo not drawn), the “activity change, negative = inhibition” value was inactive: -16.6%.

On to `CC[C@H](C)NC(=O)CCCc1nnc2n(CCC(C)C)c(=O)c3sccc3n12`, for which the “activity change, negative = inhibition” value was inactive: -13.3%.

`COc1ccccc1OC(C)C(=O)N1CCN(CCc2ccccn2)CC1` (stereo not drawn): the “activity change, negative = inhibition” value is inactive: -6.5%.

Turning to `COc1ccc(-c2cn3c(n2)sc2cc(C(=O)NC4CCCCC4)ccc23)cc1`, the “activity change, negative = inhibition” value is inactive: -24.1%.

Consider `CCOC(=O)C1CCCN(C(=O)Cn2nc(C)n3c(cc4c(OC)cccc43)c2=O)C1` (stereo not drawn), for which the “activity change, negative = inhibition” value was inactive: -8.07%.

Regarding `CCC(C)n1c(=N)c(C(=O)NC2CCCCC2)cc2c(=O)n3cc(C)ccc3nc21` (stereo not drawn), the “activity change, negative = inhibition” value is inactive: -9.02%.

In the case of `O=c1c2ccccc2nc2sc(Nc3cccc(C(F)(F)F)c3)nn12`, the “activity change, negative = inhibition” value was inactive: 20.9%.

Take `CSc1cccc(NS(=O)(=O)c2ccc3[nH]cc(C(=O)N4CCCCCC4)c(=O)c3c2)c1`: the “activity change, negative = inhibition” value is inactive: 4.38%.

For `Fc1ccc(-c2noc3ncnc(NCc4cccc(Cl)c4)c23)cc1`, the “activity change, negative = inhibition” value was inactive: -17%.
